Reference: paper PMC6919601, “Identification of Plasmodium dipeptidyl aminopeptidase allosteric inhibitors by high throughput screening” (PLoS ONE, 2019)
Screen size: about 110,000 compounds; about 230 (0.21%) showed an effect of 50% or more. The list shows a part of the results.

biological target: DPAP1 (Plasmodium falciparum, UniProt Q8IIJ9); test: primary screen, percent inhibition; read by cleavage of a fluorogenic dipeptide substrate; higher = more effect of the substance; design: species or system P. falciparum D10 trophozoite lysates; single well
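Further: 30 min substrate incubation versus DMSO and 10 µM JCP410 controls.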

Sequence of DPAP1 (Q8IIJ9 whole entry, looked up): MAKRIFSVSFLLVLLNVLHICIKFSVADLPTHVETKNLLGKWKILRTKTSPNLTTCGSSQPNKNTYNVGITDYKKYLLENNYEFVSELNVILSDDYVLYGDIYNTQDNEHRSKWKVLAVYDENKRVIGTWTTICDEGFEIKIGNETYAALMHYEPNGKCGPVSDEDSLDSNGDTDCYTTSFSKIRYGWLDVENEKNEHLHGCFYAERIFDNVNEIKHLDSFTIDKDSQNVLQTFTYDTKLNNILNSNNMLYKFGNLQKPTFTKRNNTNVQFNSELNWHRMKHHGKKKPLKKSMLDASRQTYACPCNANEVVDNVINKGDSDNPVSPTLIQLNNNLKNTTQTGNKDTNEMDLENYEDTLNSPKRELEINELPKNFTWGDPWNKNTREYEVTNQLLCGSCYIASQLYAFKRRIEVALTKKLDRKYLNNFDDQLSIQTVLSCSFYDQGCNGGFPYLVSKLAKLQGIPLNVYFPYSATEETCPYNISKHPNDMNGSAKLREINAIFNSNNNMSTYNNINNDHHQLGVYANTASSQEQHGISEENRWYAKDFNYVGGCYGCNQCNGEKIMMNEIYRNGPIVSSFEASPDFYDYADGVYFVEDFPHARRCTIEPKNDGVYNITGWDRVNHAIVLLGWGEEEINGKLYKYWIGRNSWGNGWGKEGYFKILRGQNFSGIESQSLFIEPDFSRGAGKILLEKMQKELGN

Row | Compound | % Inhibition @ 10 uM [%]
1 | O=C(CCCN1C(=O)c2cccc3cccc(c23)C1=O)NCC1CCCO1 (stereo not shown) | 11.8
2 | COc1nc(Nc2ccccc2)nc(NC(C)(C)C)n1 | 5.37
3 | O=C(CCCCCN1C(=O)C2C3C=CC(C3)C2C1=O)Nc1ncccc1O (stereo not shown) | -4.62
4 | CCCN1C(=O)S/C(=C\c2cc(Br)c(O)c(OC)c2)C1=O | -6.02
5 | CC(=O)C1=C(C)N(C)C(=O)NC1c1cccs1 (stereo not shown) | 0.708
6 | CCCOc1ccc(N2C(=O)CC(N3CCN(Cc4ccccc4)CC3)C2=O)cc1 (stereo not shown) | 3.8
7 | CN1CCN(Cc2ccccc2)CC1 | -3.71
8 | CN1C(=O)C(=CNC2CC(C)(C)NC(C)(C)C2)C(=O)N(C)C1=O | 2.38
9 | CC1=C(C(=O)Nc2ccccc2F)C(c2ccc(F)cc2)C2=C(O)CC(C)(C)CC2=N1 (stereo not shown) | -5.34
10 | O=S(=O)(c1ccc(F)cc1)N1CCCN(S(=O)(=O)c2ccc(F)cc2)CC1 | 0.605
11 | CC(O)c1ccc(NC(=O)c2nn3c(c2Cl)NC(c2cccs2)CC3C(F)(F)F)cc1 (stereo not shown) | 2.44
12 | Cc1ccc(C)c(CN2CCC(O)CC2)c1 | 3.1
13 | Cc1ccc(N2C(=O)CC(NCc3cccc(Cl)c3)C2=O)cc1 (stereo not shown) | -5.71
14 | CN1CCN(S(=O)(=O)c2ccc(NC(=O)Nc3cccc(Cl)c3)cc2)CC1 | -0.425
15 | COc1ccccc1NC(=O)/C(=C/c1ccc(C)o1)NC(=O)c1ccccc1 | 5.67
16 | CNC(=O)c1ccc2c(c1O)C(=O)c1ccccc1C2=O | 3.81
17 | COc1ccc(N2C(=O)NC(=O)/C(=C/c3ccc(Br)o3)C2=O)cc1 | -3.09
18 | CCOC(=O)c1c(C)[nH]c(C)c1S(=O)(=O)NCC(=O)N(C)Cc1ccco1 | 5.51
19 | CCOc1cc(CNC(=O)c2cc(C3CC3)[nH]n2)cc(OCC)c1OCC | -1.63
20 | O=C(c1ccccc1)C1(c2ccccc2)COCO1 (stereo not shown) | 6.61
21 | COc1ccc(-c2cc(C3CC3)nc3sc(C#N)c(N)c23)cc1 | 0.51
22 | O=[N+]([O-])c1ccc(CN2CCc3ccccc3C2)s1 | -2.81
23 | Cc1ccc(OCCN2CCN(c3ncnc4c3cnn4-c3ccccc3)CC2)cc1 | 2.56
24 | CC1CCCN(CCCNC(=O)c2coc3nc4ccccc4nc23)C1 (stereo not shown) | 6.95
25 | CC(=O)Nc1ccc2sc(C)nc2c1 | 0.035

Row | Compound | % Inhibition @ 10 uM [%]
26 | CC1CCN(Cc2nc3c(c(=O)n(C)c(=O)n3C)n2CCc2ccccc2)CC1 | 3.63
27 | O=C(NCCN1CCCCCC1)C1CCN(c2nnc(-n3cccc3)s2)CC1 | -4.04
28 | COc1cccc(NC(=O)CN(c2cc(C)ccc2C)S(C)(=O)=O)c1 | 0.00477
29 | N#CCNC(=O)C1CCCCN1S(=O)(=O)c1ccc(-c2cccs2)cc1 (stereo not shown) | 1.7
30 | c1coc(CNc2ncnc3ccccc23)c1 | -1.44
31 | CCOc1ccc(/C=N/n2c(C)nnc2C)cc1OC | 13.3
32 | CC(C)OCCCNC(=O)c1nn(C)c2c1COc1ccccc1-2 | -1.72
33 | CCOc1ccc(CC(=O)C2=C(N3CCOCC3)CC(C)(C)CC2=O)cc1OCC | 2.99
34 | Cc1ccc(C(=O)N/C(=C\c2ccco2)C(=O)NCCc2ccccc2F)cc1C | -2.64
35 | O=C(c1ccccc1)c1cccn1CC(=O)N1CCN(C2CCCCC2)CC1 | -4.04
36 | CCOc1ccccc1CN1CCN(Cc2cc(Br)ccc2O)CC1 | -5.26
37 | CC(C)C(C(=O)O)N1C(=O)C2C3CC(C2C1=O)C1C(c2cccnc2)c2sc(O)nc2SC31 (stereo not shown) | -0.0235
38 | CCc1cc(=O)oc2c(C)c3c(cc12)CN(Cc1ccco1)CO3 | 0.895
39 | O=C(O)CC(c1ccccc1)c1ccc(O)c(Cl)c1Cl (stereo not shown) | -2.91
40 | Cc1cc(C)nc(SCC(=O)Nc2ccc(OC(F)(F)F)cc2)n1 | -1.02
41 | Cn1c(=O)c2c(-c3ccc(Cl)cc3)n(-c3cccc(C#N)c3)cc2n(C)c1=O | 6.67
42 | Cc1ccc(C(=O)Nc2cccc(C#N)c2)cc1 | -2.74
43 | N#C/C(=C/Nc1ccccc1)c1nc(-c2cccs2)cs1 | -3.15
44 | Cc1coc2cc3oc(=O)c(CCC(=O)N4CCCC4)c(C)c3cc12 | 5.68
45 | Cc1ccc2nc(NC(=O)C3CCN(S(=O)(=O)c4c(C)nc(O)nc4O)CC3)sc2c1 | -3.87
46 | C=CCN1C(=O)S/C(=C/c2cc(Cl)c(OCC)c(OC)c2)C1=O | 3.29
47 | COc1ccc(C2CC(C(F)(F)F)n3nc(C(N)=O)c(Cl)c3N2)cc1OC (stereo not shown) | 2.44
48 | CCOc1cc(C2C3=C(O)CCCC3=Nc3nc(C(=O)OC)nn32)ccc1OC (stereo not shown) | -5.19
49 | CC(=O)Nc1ccc(S(=O)(=O)NC2CC3CCC2C3)cc1 (stereo not shown) | -3.03
